By IC50 is meant the dose at which the fit gives 50% viability; where the fit passes the top or lowest dose, that dose stands as a limit. AUC is the area under the same curve over the 256-fold range up to the top dose, as a fraction; it is 1 without any effect and falls as sensitivity rises. For part of these data: An inferred top dose was calculated from the reported fits. For part of these data: Where an entry number is given, a second screen of the drug exists; the two often differ.
Key:
Test in all cases: Viability of human cancer cell lines after 72 h of drug (GDSC screen)
Nilotinib = compound: Cc1cn(-c2cc(NC(=O)c3ccc(C)c(Nc4nccc(-c5cccnc5)n4)c3)cc(C(F)(F)F)c2)cn1 [Nilotinib]; conditions: top dose 2 µM
Description: (§1)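 Human cancer cell lines in 384-well plates, medium with 10% serum, drug for 72 h over a 256-fold dose range (nine 2-fold or five 4-fold steps up to the top dose). Adherent lines were fixed and stained with the nucleic acid dye Syto60, suspension lines read with resazurin; signal relative to control wells, capped at 0 and 100%. One two-parameter sigmoid per drug and line, fitted in a mixed model over all curves with the slope shared within a line.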

KIN001-270 = compound: Cc1ccc(Nc2cc(-c3cccc(N4C(=O)c5ccccc5C4=O)c3)ncn2)cc1NS(C)(=O)=O [KIN001-270]; conditions: top dose 20 µM; top dose inferred
Description: as §1

LFM-A13 = compound: C/C(O)=C(\C#N)C(=O)Nc1cc(Br)ccc1Br [LFM-A13]; conditions: top dose 16 µM; top dose inferred
Description: as §1

Gemcitabine = compound: Nc1ccn([C@@H]2O[C@H](CO)[C@@H](O)C2(F)F)c(=O)n1 [Gemcitabine]; conditions: top dose 1.024 µM
Description: as §1

MP470 = compound: S=C(NCc1ccc2c(c1)OCO2)N1CCN(c2ncnc3c2oc2ccccc23)CC1 [MP470]; conditions: top dose 20 µM; top dose inferred
Description: as §1

TW-37 = compound: CC(C)c1ccccc1Cc1cc(C(=O)Nc2ccc(S(=O)(=O)c3ccccc3C(C)(C)C)cc2)c(O)c(O)c1O [TW-37]; conditions: top dose 5 µM
Description: as §1

T0901317 = compound: O=S(=O)(c1ccccc1)N(CC(F)(F)F)c1ccc(C(O)(C(F)(F)F)C(F)(F)F)cc1 [T0901317]; conditions: top dose 10.24 µM; top dose inferred
Description: as §1

Bicalutamide = compound: CC(O)(CS(=O)(=O)c1ccc(F)cc1)C(=O)Nc1ccc(C#N)c(C(F)(F)F)c1 [Bicalutamide]; conditions: top dose inferred
Description: as §1

AUY922 = compound: CCNC(=O)c1noc(-c2cc(C(C)C)c(O)cc2O)c1-c1ccc(CN2CCOCC2)cc1 [AUY922]; conditions: top dose 0.256 µM; top dose inferred
Description: as §1

[1] = top dose 1.024 µM, screen: GDSC drug entry 150
[2] = top dose 10 µM, screen: GDSC drug entry 1502

Row | Cell Line | AUC (Nilotinib) | IC50 (Nilotinib) | AUC (KIN001-270) | IC50 (KIN001-270) | AUC (LFM-A13) | IC50 (LFM-A13) | AUC (Gemcitabine) | IC50 (Gemcitabine) | AUC (MP470) | IC50 (MP470) | AUC (TW-37) | IC50 (TW-37) | AUC (T0901317) | IC50 (T0901317) | AUC (Bicalutamide; [1]) | IC50 (Bicalutamide; [1]) | AUC (Bicalutamide; [2]) | IC50 (Bicalutamide; [2]) | AUC (AUY922) | IC50 (AUY922)
1 | D-392MG (glioma, adherent) | 0.952 | > 2000 nM | 0.95 | > 20000 nM | 0.923 | > 16000 nM | 0.842 | > 1020 nM | 0.921 | > 20000 nM | 0.685 | 1260 nM | 0.98 | > 10200 nM | 0.98 | > 1020 nM | 0.964 | > 10000 nM | 0.695 | 69.8 nM
2 | SAS (head and neck, adherent) | 0.977 | > 2000 nM | 0.971 | > 20000 nM | 0.98 | > 16000 nM | 0.32 | 18.9 nM | 0.909 | > 20000 nM | 0.336 | 104 nM | 0.948 | > 10200 nM | 0.94 | > 1020 nM | 0.973 | > 10000 nM | 0.716 | 70.7 nM
3 | COLO-205 (large intestine, suspension) | 0.97 | > 2000 nM | 0.988 | > 20000 nM | 0.931 | > 16000 nM | 0.836 | 663 nM | 0.947 | > 20000 nM | 0.952 | > 5000 nM | 0.98 | > 10200 nM | 0.978 | > 1020 nM | 0.985 | > 10000 nM | 0.688 | 53.2 nM
4 | HARA (lung squamous cell carcinoma, adherent) | 0.934 | > 2000 nM | 0.98 | > 20000 nM | 0.954 | > 16000 nM | 0.631 | 156 nM | 0.967 | > 20000 nM | 0.614 | 679 nM | 0.977 | > 10200 nM | 0.98 | > 1020 nM | 0.981 | > 10000 nM | 0.664 | 49.6 nM
5 | OVMIU (ovary, adherent) | 0.981 | > 2000 nM | 0.976 | > 20000 nM | 0.953 | > 16000 nM | 0.618 | 147 nM | 0.902 | > 20000 nM | 0.445 | 213 nM | 0.965 | > 10200 nM | 0.98 | > 1020 nM | 0.96 | > 10000 nM | 0.572 | 26.4 nM
6 | EFO-27 (ovary, adherent) | 0.977 | > 2000 nM | 0.978 | > 20000 nM | 0.971 | > 16000 nM | 0.337 | 20 nM | 0.936 | > 20000 nM | 0.381 | 135 nM | 0.981 | > 10200 nM | 0.981 | > 1020 nM | 0.926 | > 10000 nM | 0.466 | 12.6 nM
7 | RO82-W-1 (thyroid, adherent) | 0.978 | > 2000 nM | 0.96 | > 20000 nM | 0.98 | > 16000 nM | 0.902 | > 1020 nM | 0.969 | > 20000 nM | 0.533 | 394 nM | 0.978 | > 10200 nM | 0.962 | > 1020 nM | 0.972 | > 10000 nM | 0.868 | > 256 nM
8 | BT-20 (breast, adherent) | 0.98 | > 2000 nM | 0.975 | > 20000 nM | 0.974 | > 16000 nM | 0.65 | 186 nM | 0.91 | > 20000 nM | 0.618 | 717 nM | 0.98 | > 10200 nM | 0.983 | > 1020 nM | 0.982 | > 10000 nM | 0.863 | > 256 nM
9 | HuO9 (osteosarcoma, adherent) | 0.924 | > 2000 nM | 0.982 | > 20000 nM | 0.984 | > 16000 nM | 0.979 | > 1020 nM | 0.611 | 2620 nM | 0.625 | 722 nM | 0.956 | > 10200 nM | 0.981 | > 1020 nM | 0.978 | > 10000 nM | 0.975 | > 256 nM
10 | IGR-1 (melanoma, adherent) | 0.99 | > 2000 nM | 0.966 | > 20000 nM | 0.99 | > 16000 nM | 0.278 | 16.6 nM | 0.945 | > 20000 nM | 0.432 | 209 nM | 0.99 | > 10200 nM | 0.99 | > 1020 nM |  |  | 0.507 | 16.6 nM
11 | D-542MG (glioma, adherent) | 0.984 | > 2000 nM | 0.916 | > 20000 nM | 0.967 | > 16000 nM | 0.973 | > 1020 nM | 0.895 | > 20000 nM | 0.58 | 542 nM | 0.976 | > 10200 nM | 0.982 | > 1020 nM | 0.936 | > 10000 nM | 0.806 | 167 nM
12 | C3A (liver, adherent) | 0.988 | > 2000 nM | 0.988 | > 20000 nM | 0.987 | > 16000 nM | 0.261 | 12.8 nM | 0.928 | > 20000 nM | 0.781 | 2160 nM | 0.988 | > 10200 nM |  |  | 0.961 | > 10000 nM | 0.529 | 19.2 nM
13 | KYSE-140 (oesophagus, adherent) | 0.97 | > 2000 nM | 0.959 | > 20000 nM | 0.984 | > 16000 nM | 0.377 |  | 0.956 | > 20000 nM | 0.474 | 263 nM | 0.984 | > 10200 nM | 0.984 | > 1020 nM |  |  | 0.459 | 12.2 nM
14 | H4 (glioma, adherent) | 0.959 | > 2000 nM | 0.979 | > 20000 nM | 0.932 | > 16000 nM | 0.161 | 5.99 nM | 0.959 | > 20000 nM | 0.545 | 415 nM | 0.968 | > 10200 nM | 0.977 | > 1020 nM | 0.964 | > 10000 nM | 0.494 | 15.4 nM

Source: the supplement of paper PMC4967469
